# In PubChem BioAssay AID1948 (National Center for Advancing Translational Sciences (NCATS), 2009):
# Among all 110,000 compounds or so, about 20 (0.02%) were called active. The inconclusive results got no clear call from the source; some entries with a clear call stand among them for comparison. Calls follow the shape of the dose curve; as a rule, active = well fitted activation curve with a large enough effect; inconclusive = small, poorly fitted or top-dose-only effect; inactive = no such curve, though single readings can be large or run the other way. Potencies of inconclusive entries are left out as doubtful fits.
# Assay: qHTS Assay for Compounds that Induce Erasure of Genomic Imprints;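 as to activity change, positive = activation: 0% = negative control wells on the plate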
# Conditions: mouse ES Peg3-LacZ reporter, beta-gal luminescence, 40 h; activity change, positive = activation: at 10.9 µM (top of the series) unless noted
# Procedure, shortened: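 Each well holds 300 Peg3LacZ-Neo (maternal) female ES cells incubated 40 h at 37C, 5% CO2. LacZ is measured by BetaGlo luminescence, with AC50 and maximum efficacy derived from dose-response curves.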
# Potency is read from the fitted curve at half-maximal effect; tags tell the direction and shape of the fitted curve.
Structure (SMILES),Potency,"activity change, positive = activation"
Cc1ccc(-n2c(=O)c3ccc(C(=O)NCc4ccco4)cc3n(Cc3ccccc3Cl)c2=O)cc1,inactive,–
Fc1ccccc1N1CCN(c2nc3ccccc3n3nnnc23)CC1,"inconclusive [activator, single point]",–
CCN(C(=O)c1ccc(C(=O)N(CC)c2ccccc2C)cc1)c1ccccc1C,inactive,–
O=C(NCc1ccccc1)c1cccn1-c1nnc(N2CCCCC2)s1,–,inconclusive: 31% [activator]
CCOc1ccc(NC(=O)CSc2ncc(S(=O)(=O)c3ccc(F)c(C)c3)c(=O)[nH]2)cc1,–,inconclusive: 36.9% [activator]
COC(=O)c1ccc(C(NC(=O)OCc2ccccc2)/C(F)=C/[C@@H](C)C(=O)NCc2ccc(OC)c(OC)c2)cc1 (stereo not given in full),inactive,–
Cc1ccc(-c2nc3sc(CCNC(=O)c4ccc(C)c(C)c4)c(C)n3n2)cc1,–,inconclusive: 88.8% [activator]
CCc1nn(CC(=O)NCCCN(CC(C)C)CC(C)C)c(=O)c2cc3sc(C)cc3n12,–,inconclusive: 48.8% [activator]
Cc1ccc(/C=C/c2onc(C)c2S(=O)(=O)N2CCC(C(=O)N3CCC(N(C)C(C)C)CC3)CC2)cc1,inactive,–
Cc1ccccc1C(=O)N(C)Cc1ccccc1,"inconclusive [activator, single point]",–
Nc1cccc(S(=O)(=O)O)c1,"inconclusive [activator, single point]",–
O=C(COc1ccccc1Cl)NCC1(N2CCOCC2)CCCCC1,–,inconclusive: 38.8% [activator]
Cc1cccc(OCCn2c(-c3ccc(Cl)cc3)nc3ccccc3c2=O)c1,–,inconclusive: 30.5% [activator]
COc1ccc(-c2[nH]ncc2C(=O)NCc2ccccc2C)cc1,–,inconclusive: 35.7% [activator]
Clc1cccc(-n2ncc3c(N4CCCCC4)ncnc32)c1,inactive,–
CCOc1cccc2sc(N3CCN(C(=O)C4CC4)CC3)nc12,–,inconclusive: 35.1% [activator]
COc1ccc(OC)c(CNC(=O)c2nn(C)c3c2CSc2ccccc2-3)c1,–,inconclusive: 35.4% [activator]
O=C(NCC(c1ccc2c(c1)OCO2)N1CCOCC1)C(=O)Nc1cccc(Cl)c1 (stereo not given),–,inconclusive: 101% [activator]
COc1ccc(OC)c(NC(=O)c2cc(S(=O)(=O)NCCc3ccc(Cl)cc3)ccc2F)c1,–,inconclusive: 32.7% [activator]
COc1ccc(NC(=O)Cn2c(=O)n(CCCC(=O)NCCc3ccc(C)cc3)c(=O)c3ccccc32)cc1Cl,–,inconclusive: 31.3% [activator]
Cn1c(C(=O)NCc2ccccn2)cc2c(=O)n(C)c3ccccc3c21,inactive,–
CCc1ccc(C2CC(=O)c3c([nH]c(C(=O)OCCOc4ccccc4)c3C)C2)cc1 (stereo not given),inactive,–
COc1cc2ccccc2cc1C(=O)N1CCN(c2nc3c(C)cc(C)cc3s2)CC1,–,inconclusive: 39.3% [activator]

Structure (SMILES),Potency,"activity change, positive = activation"
CCOC(=O)c1c(NC(=O)CS(=O)(=O)c2ccc(C)cc2)sc2c1CCC(C)C2 (stereo not given),–,inconclusive: 35.6% [activator]
COc1ccccc1OCC(=O)Nc1nnc2n1CCS2,–,inconclusive: 42.1% [activator]
CCOc1ccc(S(=O)(=O)N(CC(=O)Nc2cccnc2)c2ccccc2)cc1,–,inconclusive: 30.7% [activator]
CCCOc1ccc(-c2nc3ccccc3c(=O)o2)cc1,inactive,–
Cc1c(C(=O)Nc2nc(-c3ccc(F)cc3)ns2)oc2ccc(Br)cc12,inactive,–
CS(=O)(=O)Nc1cccc(-c2cncnc2Nc2ccc(F)cc2)c1,"inconclusive [activator, single point]",–
O=C(Nc1cccc(C(=O)Nc2ccc(S(=O)(=O)O)c3cc(S(=O)(=O)O)cc(S(=O)(=O)O)c23)c1)Nc1cccc(C(=O)Nc2ccc(S(=O)(=O)O)c3cc(S(=O)(=O)O)cc(S(=O)(=O)O)c23)c1,"inconclusive [activator, single point]",–
CC(=O)OC1CC[C@]2(C)C(CC[C@@]3(C)C2C(=O)C=C2C4C(C)C(C)CC[C@@]4(C(=O)O)CCC23C)C1(C)C (stereo not given in full),"inconclusive [activator, single point]",–
N[C@@H](Cc1nn[nH]n1)C(=O)O,"inconclusive [activator, partial curve]",–
CN(C)C(=O)c1ccc(-c2ccc3ncnc(Nc4ccc(F)cc4)c3c2)cc1,"inconclusive [activator, full curve, poor fit]",–
c1ccc(-c2onc3cc4c(cc23)OCCO4)cc1,inactive,–
CCNc1ncc2nc(-c3ccccc3)c(=O)n(Cc3cccs3)c2n1,"inconclusive [activator, single point]",–
O=C(Nc1ccc(NC(=O)C2CCCN2C(=O)OCc2ccccc2)cc1)c1ccco1 (stereo not given),"inconclusive [activator, single point]",–
CCOc1ccc(NC(=O)CC2NCCNC2=O)cc1 (stereo not given),"inconclusive [activator, single point]",–
CCn1c(=O)cc(OCC(=O)N2CCN(c3cccc(Cl)c3)CC2)c2ccccc21,–,inconclusive: 126% [activator]
O=C(CCS(=O)(=O)c1nc(-c2ccc3c(c2)OCO3)cc(C(F)(F)F)n1)Nc1ccc(F)cc1F,–,inconclusive: 39.5% [activator]
CCc1ccc(CNc2ncnc3onc(-c4ccc(Cl)cc4)c23)cc1,inactive,–
COc1ccc(CNC(=O)Cn2c(=O)n3nc(-c4cccc(F)c4)nc3c3ccccc32)cc1OC,inactive,–
N#CC(CC(=O)O)=C(c1ccccc1)c1ccccc1,"inconclusive [activator, single point]",–
COc1ccc2[nH]cc(CCNc3ncncc3-c3cccc(C#N)c3)c2c1,"inconclusive [activator, full curve]",–
O=C(CCCn1c(=O)[nH]c2ccccc2c1=O)NCc1ccccc1Cl,–,inconclusive: 47.1% [activator]
O=C(O)[C@@H]1C[C@H](C(=O)O)N1,inactive,–
